Source: the RNAGym collection of RNA variant scans (doi:10.1073/pnas.2313332121)
This sample is rich in variants without activity.

B1: TPR 5TU (parent)
chain: GGAUCUUCUCGAUCUAACAAAAAAGACAAAUCUGCCACAAAGCUUGAGAGCAUCUUCGGAUGCAGAGGCGGCAGCCUUCGGUGGCGCGAUAGCGCCAACGUUCUCAACUAUGACACGCAAAACGCGUGCUCCGUUGAAUGGAGUUUAUCAUG

Variants of: B1
Assay: polymerase ribozyme fitness, log enrichment relative to wild type (log ratio); higher = more active; in vitro selection for triplet polymerase activity
Procedure, shortened: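 A single round of triplicate in vitro selection, including frozen incubation at −7 °C, was applied to PCR-built, transcribed mutant libraries of each subunit of a heterodimeric triplet polymerase ribozyme. Illumina sequencing of input and output libraries retained genotypes with ≥10 input reads and ≥1 read per output. Fitness is the base-2 logarithm of genotype enrichment divided by wild-type enrichment, from inverse-variance-weighted replicate averages.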

Variant | polymerase ribozyme fitness (log ratio)
GGAUAUUCUCGAUCUAACAAAAAAGACAAAUCUGCCACAAAGCUUGAGAGCAUCUUCGGAUGCAGAGGCGGCAGCCUUCGGUGGUGCGAUAGUGCCAACGUUCUCAACUAUGACACGCAAAACGCGUGCUCCGUUGAAUGGAGUUUAUCAUG [C5A C85U C93U] | -1.66
GGAUAUUCUCGAUCUAACAAAAAAGACAAAUCUGCCACAAACCUUGAGAGCAUCUUCGGAUGCAGAGGCGGCAGCCUUCGGUGGCGCGAUAGGGCCAACGUUCUCAACUAUGACACGCAAAACGCGUGCUCCGUUGAAUGGAGUUGAUCAUG [C5A G42C C93G U146G] | ≤ -4.2
GGAUAUUCUCGAUCUAACAAAAAAGACAAAUCUGCCACAAAGCUUGACAGCAUCUUCGGAUGCAGAGGCGGCAGCCUUCGGUGGCGCGAUAGCGCCAACGUUCUCAACUAUGACACGCAAAACGCGUGCUCCGUUGAAUGGAGUUUAUCAUG [C5A G48C] | -0.334
GGAUAUUCUCGAUCUAACAAAAAAGACAAAUCUGCCACAAAGCUUGAGAGCAUCUUCGGAUACAGAGGAGGCAGGCUUCGGUGGCGCGAUAGCGCCAACGUUCUCAACUAUGACGCGCAAAACGCGUGCUCCGUUGAAUGGAGUUUAUCAUG [C5A G62A C69A C75G A115G] | ≤ -4.2
GGAUAUUCUCGAUCUAACAAAAAAGACAAAUCUGCCACAAAGCUUGAGAGCAUCUUCGGAUGCAGAGUCGGCAGCCUUCAGUGGCGGGAUAGGGCCAACGUUCUCAACUAUGACACGCAAAACGCGUGCUCCGUUGAAUGGAGUUUAUCAUG [C5A G68U G80A C87G C93G] | ≤ -4.2
GGAUAUUCUCGAUCUAACAAAAAAGACAAAUCUGCCACAAAGCUUGAGAGCAUCUUCGGAUGCAGAGGCGGCAGCCUUCGGUAGCGCGAUAGCGCCAACGUUCUCAACUAUGACACGGAAAACGCGGGCUCCGUUGAAUGGAGUUUAUCAUG [C5A G83A C118G U127G] | ≤ -4.2
GGAUAAUCUCGAUCUCACAAGAAAGACAAAUCUGCCACAAAGCGUGAGAGCAUCUUCGUAUGCAGAGGCGGCAGCCUUCGGUGGCGCGAUAGCGCCAACGUUCUCAACCAUGACACUCAAAACGCGUGCUCCGUUGAAUGGAGUUUAUCAUG [C5A U6A A16C A21G U44G G59U U109C G117U] | ≤ -4.2
GGAUAUACUCGAUCUAACAAAAAAGACAAAUCUGCCACAAAGCUUGAGAGCAUCAUCGGAUGCAGAGGCUGCAGCCUUCGGUGGGGCGAUAGCGCCAACGUUCUCAACUAUGACACGCAAAACGCGUACUCCGUUGAAUGGAGCUUAUCAUG [C5A U7A U55A G70U C85G G128A U144C] | ≤ -4.2
GGAUAUCCUCGAUCUAACAAAUAAGACAAAUCUGCCACAAAGCUUGAGAGCAUCUUCGGAUGCAGAGGCGGCAGCCUUCGGUGGCGCGAUAGCGCCAACGUUGUCAACUAUGACACGCAAAACGCGUGCUCCGUUGAAUGGAGUUUAUCAUG [C5A U7C A22U C103G] | -2.38
GGAUAUCCUCGAUCUAACAAAAAAGACAAAUAUGUCACAAAGCUUGAGAGCAUCUACGGAUGCAGAGGCGGCAGCCUUCGGUGGCGCGAUAGCGCAAACGUUCUCAACUAUGACACGCAAGACGCGUGCUCCGUUGAAUGGAGUUUAUCAUG [C5A U7C C32A C35U U56A C96A A121G] | ≤ -4.2
GGAUAUGCUCGAUCUAACAAAAAAGACAAAUCUGCCACAAAGCUUGAGAGCAUCUUCGGAUGCAGAGGCGGCAGCCUUCGGUGGCGCUAUAGCGCCAACGUUCUGAACUAUGACACGCAAAACGCGUGCUCCGUUAUAUGGAGUUUAUCAUU [C5A U7G G88U C105G G136A A137U G152U] | ≤ -4.2
GGAUAUUCCCGAUCUAACAAAAAAGACAACUCUGCCACAAAGCUUAAGCGCAUCUUCGGAUGCAGAGGCGGCAGCCUUCGGUGGCGCGAUAGUGCCAACGUUCUCAACUAUGACACGCAAAACGCGUGGUCCGUUGAAAGGAGUUUAUCAUG [C5A U9C A30C G46A A49C C93U C129G U139A] | ≤ -4.2
GGAUAUUCUCGAUCCAACAAAAAAGACAAAUCUGCCACAAAGCUUGAGAGCAUCUACGGAUGCAGAGGCGGCAGCCUUCGGUGGCGCGAUAGCGCCAACGUUCUGACCUAUGACACUCAAAACGCGUGCUCCGUUGAACGGACUUUACCAUG [C5A U15C U56A C105G A107C G117U U139C G143C U148C] | ≤ -4.2
GGAUAUUCUCGAUCUAACAAAAAAGACAAAUCUGCCACAAAGCUCGAGAGCAUCUUCGGAUGCUGAGGCGGCAGACUUCGGUGGCGCGAUAGCGCCAACGUUCUCAACUAUGACACGCAAAACGCGUGCUCCGUUGAAUGCAGUCUAUCUUG [C5A U45C A64U C75A G141C U145C A150U] | ≤ -4.2
GGAUAUUCUCGAUCUAACAAAAAAGACAAAUCUGCCACAAAGCUUGAGAGCAUCUUCGGAUGCAGAGGCGGCAGCCAUCGGUGGCGAGAUAGCGCCAACGUUCUCAACUAUGACACGCAAAACGCGUGCUCCGUUGAAUGGAGUUUAUCAUG [C5A U77A C87A] | ≤ -4.2
GGAUAUUCUCGAUCUAACAAAAAAGACAAAUCUGCCACAAAGCUUGAGAGCAUCUUCGGAUGCAGAGGCGGCAGCCUUCGGUGGCGCGAUAGCGCCAACGUUCUCAACUAUGACACGCAAAACGCGUGCUCCGUUGAAUGGAGUUUAGCAUG [C5A U148G] | -3.62
GGAUGUUCUCGCUCUAACAAAAAAGACAAAUCUGCUACAAAGCUUGAGACCAUCUUCCGAUGCAGAGGCGGCAGCCUUCGGUGGCGCGAUGGCGCCAACGUUCUCAACUAUGACACGCAAAACACGUGCUCCGUUGAAUAGAGUUUAUCAUG [C5G A12C C36U G50C G58C A91G G124A G140A] | ≤ -4.2
GGAUGUUCUCGCUCUAACAAAAAAGACAAAUCUGCCACAAAGCUUGAGAGCAUCUUCGGAUGCAGAGGCGGCAGCCUUCGGUGGCGAGAUAGCGCCAACGGUCUCAACUAUGACACGCAAAACACGUGCUCCGUUGAAUGGCGUUUAUCAUG [C5G A12C C87A U101G G124A A142C] | ≤ -4.2
GGAUGUUCUCGGUCUAACAAGGAAGACAAAUCUGCCACAAAGCUUGAGAGCAUCUUCGGAUGCAGAGGCGGCAGGCUUCGGUGGCGCGAUAGCGCCAACGUUCUCAACUAUGACACGCAAAACGCGUGCUCCGUUGAAUGGAGUUUAUCAUG [C5G A12G A21G A22G C75G] | ≤ -4.2
